Results: PubChem BioAssay AID720536 (National Center for Advancing Translational Sciences (NCATS), 2013)
Among all 1,600 compounds or so, about 650 (41%) were called active. The set was probably picked from earlier hits. Inconclusive means that the source gave no clear call. Such entries were picked first, then a sample of the others. Calls follow the shape of the dose curve; as a rule, active = well fitted inhibition curve with a large enough effect; inconclusive = small, poorly fitted or top-dose-only effect; inactive = no such curve, though single readings can be large or run the other way. Potencies of inconclusive entries are left out as doubtful fits.

assay: qHTS for Inhibitors of TGF-b: CCL64 Cells Orthogonal Assay for Cherry Picks; settings: CCL64 CAGA-GFP reporter, TGF-b stimulated, GFP fluorescence, 18 h; activity, negative = inhibition: at 46.1 µM (top of the series); also: nearly all actives have a fitted effect of over 65% in size
From the text: TGF-b is a main component in the TGF-b signaling pathway which plays diverse roles in cellular and development pathways. TGF-b is the mediated by the transcription factors Smads. Although the Smad-dependent pathway is the primary canonical TGF-b signaling node, TGF-b1 can also activate alternative signaling pathways, including those involving MAPK (ERK, JNK and p38). This interaction may mediate or enhance Smad-dependent responses, or can exert Smad-independent effects. The complexity of this signaling cascade allows the TGF-b superfamily to perform unique, overlapping or redundant functions. We believe that targeting the TGF-beta pathway at the Smad-transcription factor level may eliminate the consequences of disrupting the entire pathway and offer specificity without affecting other signaling pathways. Smad3 is the primary transducer of TGF-b's signals and Smad3 regulates many functions attributed to TGF-b signaling. We hypothesize that Smad3 inhibitors will selectively eliminate Smad3-specific TGF-beta signals without undesired off-target effects. We aim to identify Smad3-small molecule antagonists using a quantitative high throughput screening (qHTS) approach. A high-throughput assay was developed to screen the NIH Molecular Libraries Small Molecule Repository (MLSMR). This is a cell based assay, where TGF-b is tagged with GFP. This orthogonal assay was run using CCL64 cells (as opposed to HepG2); activity was desired in this assay as this indicated the hits identified from the screen are not a cell-based artifact. MH087449NIH Chemical Genomics Center [NCGC] NIH Molecular Libraries Probe Centers Network [MLPCN] MLPCN Grant: MH087449 Assay Submitter (PI): Sushil Rane, National Institute of Diabetes and Kidney Diseases
Suspensions of trypsinized CCL64 CAGA-GFP cells were dispensed into white, tissue culture-treated, solid 1536-well plates at 5uL/well (1000 cells/well final concentration) in DMEM medium supplemented with 1% FBS. Plates were incubated at 37 degrees C for 2 hours, after which 23 nL of compounds or DMSO were delivered to each well using a pin tool. One uL of recombinant TGF-beta in DMEM (1% FBS) was then dispensed (500 pg/mL final concentration), and plates were incubated at 37 degrees C for 18 hours. The plates were measured on an Acumen eX3 Explorer plate reader for GFP fluorescence (ex488/em500-530). GFP values were calculated by determining the mean GFP fluorescence of individual cells, and compiling these values for each well to determine a total well GFP signal. The %Activity was determined from the corrected fluorescence values. A titration of the known TGF-B inhibitor SB431542 was included to monitor plate performance, while unstimulated […] (-TGF-B) control wells were used to normalize %Activity of identified inhibitors; unstimulated wells corresponded to 100%Activity (full inhibition), while stimulated cell controls (+DMSO) were used to normalize 0%Activity (no inhibition). Concentration-response curves were fitted to the signals arising from the resulting fluorescence. The concentration-effect curves were then classified based on curve quality (r2), response magnitude and degree of measured activity, and compounds were subsequently categorized based on their curve class.
Potency is read from the fitted curve at half-maximal effect; tags tell the direction and shape of the fitted curve.

Structure (SMILES)	activity, negative = inhibition	Potency
Cc1ccccc1OCCNC(=O)c1ccccc1Sc1ccccc1C#N	inactive: -16.5%	–
Brc1cccc(-c2nc3ccc(Br)cn3c2Cc2ccsc2)c1	–	inconclusive [inhibitor, single point]
COc1ccc(C(c2c(O)ccc3ccccc23)N2CCOCC2)c(OC)c1 (stereo not given)	–	inconclusive [inhibitor, single point]
O=S(=O)(c1cc(F)ccc1F)N1CCN(c2ncnc3ccccc23)CC1	inactive: -14.7%	–
COc1ccc(N2CCCC2)c(NC(=O)c2ccc([N+](=O)[O-])o2)c1	–	inconclusive [inhibitor, single point]
OCc1ccc(O)c2ncccc12	–	inconclusive [inhibitor, full curve]
COc1cc(C2C3=C(COC3=O)OC(C)(C)Oc3cc4c(cc32)OCO4)cc(OC)c1OC (stereo not given)	–	inconclusive [inhibitor, single point]
CC(C)C(=O)N1CCN(c2ccc(NC(=O)c3ccc([N+](=O)[O-])o3)cc2)CC1	–	inconclusive [inhibitor, partial curve, poor fit]
O=C(Nc1ccc(S(=O)(=O)N2CCOCC2)cc1)c1ccc([N+](=O)[O-])o1	–	active: 11.6 µM
CC(C)(C)C(=O)/C(=C/c1ccncc1)n1cncn1	–	active: 5.8 µM
CC(C)C[C@@H](CN1CCCC1CN1C(=S)NC[C@@H]1Cc1ccc(O)cc1)N1C[C@H](Cc2ccccc2)N(CCc2ccccc2)C1=S (stereo not given in full)	–	inconclusive [inhibitor, partial curve]
Cc1cc(/C=N/NC(N)=S)c(C)n1-c1ccc(Br)cc1	–	inconclusive [inhibitor, partial curve, poor fit]
O=C(O)c1ccc(/C=C2\COc3ccccc3C2=O)cc1	inactive: -88.6%	–
O=C(Nc1ccc(C(F)(F)F)cc1)N1CCN(c2ccnc3cc(Cl)ccc23)CC1	–	inconclusive [inhibitor, single point]
COc1cc(OC)cc(C(=O)N[C@H](C(=O)OCc2cc(=O)oc3cc(C)ccc23)C(C)C)c1	inactive: -12.3%	–
Cc1cc(C)c(CN2CCN(C(=O)Cn3cnc4c(OCc5ccccc5)ncnc43)CC2)c(C)c1	–	inconclusive [inhibitor, single point]
COc1ccc(-c2cc3nc(NCC4CCCCC4)n(C)c(=O)c3s2)cc1OC	–	inconclusive [inhibitor, partial curve, poor fit]
CC(C)C[C@H]1CN=C(Nc2ccccc2)N1CCc1cccc(F)c1	–	active: 13 µM
O=C(C1CCC(CNS(=O)(=O)c2cccc3nsnc23)CC1)N1CC=C(c2ccccc2)CC1 (stereo not given)	–	inconclusive [inhibitor, single point]
CC(C)CCCCCCCCCCCCC(=O)NCC(=O)NC1C(C)OC(Nc2ncnc3nc[nH]c23)C(O)C1O (stereo not given)	–	active: 0.517 µM
Cc1ccc(CNc2ccc(O)cc2)cc1	–	inconclusive [inhibitor, single point]
O=C(Nc1ccccc1C(=O)Nc1nnc(C(F)(F)F)s1)c1ccccc1Cl	–	active: 6.51 µM

Structure (SMILES)	activity, negative = inhibition	Potency
COc1ccc(CNC(=O)c2cccc(-c3ccc(C)c4ccccc34)n2)cc1	–	inconclusive [inhibitor, partial curve, poor fit]
COc1ccc(Nc2nc(-c3ccccc3)nc3ccccc23)cc1	–	inconclusive [inhibitor, single point]
Cn1nnnc1SC(C(=O)Nc1cccc(C(F)(F)F)c1)c1ccccc1 (stereo not given)	–	inconclusive [inhibitor, single point]
Cc1ccc(C(=O)CSc2cc(C)nc(SCC(=O)c3ccccc3)n2)cc1	inactive: -2.81%	–
COc1ccc(-c2cc(C(=O)N(C)CC(=O)Nc3cccc(F)c3)c3ccccc3n2)cc1	–	inconclusive [inhibitor, single point]
Cc1nn(-c2ccc(F)cc2)c(C)c1NS(=O)(=O)c1ccc2ccccc2c1	–	inconclusive [inhibitor, single point]
COc1ccc(/C=C2/CSC/C(=C/c3ccc(OC)c(OC)c3)C2=O)cc1OC	–	active: 2.31 µM
CCn1c(=O)c(C(=O)Nc2nc3ccccc3[nH]2)c(O)c2ccccc21	–	inconclusive [inhibitor, single point]
N#CC(c1ccc(Cl)cc1)c1ccc2c(C(F)(F)F)cc(C(F)(F)F)nc2n1 (stereo not given)	–	active: 1.46 µM
C(=C\c1ccccc1)/CN1CCN(C(c2ccnc3ccccc23)c2nnnn2C2CCCCC2)CC1 (stereo not given)	–	active: 18.4 µM
O=C(COc1cccc2ccccc12)Nc1ccc(Cl)cc1C(=O)O	–	inconclusive [inhibitor, single point]
O=C(Nc1cccc2ccccc12)c1ccc([N+](=O)[O-])s1	–	inconclusive [inhibitor, single point]
Cc1ccc(NC(=O)Nc2nnc(-c3ccncc3)s2)cc1C	–	inconclusive [inhibitor, single point]
CCN(C(=O)c1cc2c(C)nc3ccccc3c2o1)c1cc(Cl)ccc1OC	–	inconclusive [inhibitor, single point]
C=CCNc1ncnc2c1ncn2C1OC(CO)C(O)C1O (stereo not given)	inactive: -18.2%	–
COc1ccc(C(CCNCc2ccc(F)cc2)c2ccc(F)cc2)cc1 (stereo not given)	–	inconclusive [inhibitor, single point]
O=C(NCc1ccccc1)c1nc(S(=O)(=O)Cc2ccccc2)ncc1Cl	–	active: 2.31 µM
Cc1noc(C)c1COc1ccccc1C(=O)N(C)Cc1ccc(C(C)(C)C)cc1	–	inconclusive [inhibitor, single point]
CCc1noc(C)c1C(=O)Nc1nc(-c2ccc(Cl)cc2Cl)cs1	–	inconclusive [inhibitor, single point]
Cc1ccccc1OCC(O)CNC1CCC(NCC(O)COc2ccccc2C)CC1 (stereo not given)	–	inconclusive [inhibitor, single point]
O=C(c1ccc2c3c(cccc13)CC2)C1CCCN(Cc2ccncc2)C1 (stereo not given)	–	inconclusive [inhibitor, single point]
CCOC(=O)C1=C(CC)Nc2ccccc2N=C1NC(=O)Nc1ccc(Cl)c(Cl)c1	–	active: 6.51 µM

Structure (SMILES)	activity, negative = inhibition	Potency
Cc1ccc(Nc2nc(NCc3cccs3)nc3ccsc23)c(C)c1	–	inconclusive [inhibitor, single point]
Cc1cc(C)cc(Oc2coc3cc(OC(=O)c4cccs4)ccc3c2=O)c1	inactive: -1.93%	–
CCOc1ccc(Cl)cc1-c1cc(C(=O)NCc2cc(C(F)(F)F)cc(C(F)(F)F)c2)[nH]n1	–	inconclusive [inhibitor, single point]
Cc1ccc(-c2ccc(CN3C(C(C)C)C(=O)N(Cc4cn(CCC5OCCO5)nn4)CCS3(=O)=O)cc2)c(C)c1 (stereo not given)	–	active: 23.1 µM
Cc1ccccc1C(=O)N1CCN(c2ccc(NC(=O)c3ccc([N+](=O)[O-])o3)cc2)CC1	inactive: -6.81%	–
NC(=O)CC(NC(=O)Cc1ccc(Br)cc1)c1ccc(N2CCN(c3ccccn3)CC2)c([N+](=O)[O-])c1 (stereo not given)	inactive: -0.098%	–
COc1ccc(/C=N\NC(=O)c2ccccc2[N+](=O)[O-])cc1COc1c(F)c(F)c(F)c(F)c1F	–	inconclusive [inhibitor, single point]
CC(C)C[C@H]1CN([C@@H](CC(C)C)CN2CCC[C@@H]2CN2C(=S)NC[C@@H]2Cc2ccc(O)cc2)C(=S)N1CCc1ccccc1	–	active: 16.4 µM
CN(C(=O)/C=C/c1ccc([N+](=O)[O-])s1)c1ccccc1	–	active: 20.6 µM
C(=C\c1ccccc1)/CN1CCN(C(c2ccnc3ccccc23)c2nnnn2-c2ccc3c(c2)OCCO3)CC1 (stereo not given)	–	inconclusive [inhibitor, partial curve, poor fit]
Cc1cc(C)cc(NC(=O)Cn2c(=O)oc3cc(S(=O)(=O)N4CCC(C)CC4)ccc32)c1	–	inconclusive [inhibitor, single point]
O=[N+]([O-])c1ccc(NS(=O)(=O)c2ccc(Cl)c(Cl)c2)cc1	–	inconclusive [inhibitor, partial curve, poor fit]
COc1ccc([C@H]2CC(=O)C=C(c3ccc(Cl)c(C(F)(F)F)c3)C2)cc1	–	inconclusive [inhibitor, single point]
Nc1cc2nn(-c3ccccc3)nc2cc1Cl	inactive: 16.1%	–
COc1ccc(C(=O)C(CN2CCOCC2)c2ccccc2)cc1F (stereo not given)	–	active: 7.31 µM
Cc1nnc(SCC(=O)N/N=C/c2cn(-c3ccccc3)nc2-c2ccccc2)n1-c1ccccc1	–	inconclusive [inhibitor, single point]
C[C@@H]1CCCCO[C@H](CN(C)Cc2ccc(Cl)c(Cl)c2)[C@H](C)CN([C@@H](C)CO)C(=O)c2cc(NC(=O)Nc3ccc(F)cc3)ccc2O1	–	active: 5.8 µM
O=C1Nc2ccccc2N=C(c2ccc3c(c2)OCO3)C1N(C(=O)c1ccnc2ccccc12)c1ccccc1 (stereo not given)	–	inconclusive [inhibitor, partial curve, poor fit]
CCN(CC)C(=O)[C@H]1C[C@H](CC(=O)NCc2cccc(C(F)(F)F)c2)C(=O)N2CCc3c([nH]c4ccc(Cl)cc34)[C@]12C	–	active: 25.9 µM
CCCOc1ccccc1N/C(=N/c1nc(C)cc(C)n1)NC(=O)COc1ccc(OC)cc1	–	inconclusive [inhibitor, partial curve]
CCCC[C@H]1COCCS(=O)(=O)N1Cc1ccc(Br)cc1	–	inconclusive [inhibitor, single point]
